Experimental data reported in PubChem BioAssay AID1347165 (National Center for Advancing Translational Sciences (NCATS), 2019).
The campaign covered roughly 220,000 compounds. About 5,700 (2.6%) were called active. The inconclusive results got no clear call from the source; some entries with a clear call stand among them for comparison. The call rests on the fitted dose curve; in most records, active means well fitted inhibition curve with a large enough effect; inconclusive means small, poorly fitted or top-dose-only effect; inactive means no such curve, though single readings can be large or run the other way. A potency beside an inconclusive call is a rough fit, not a confirmed value.

target: Lysine-specific demethylase 5B (Homo sapiens) (UniProt Q9UGL1); experiment: Primary screen for KDM5B Histone Demethylases FDH-coupled qHTS; settings: FDH-coupled NADH fluorescence (FDH is formaldehyde dehydrogenase); activity change, negative = inhibition: at 57.7 µM (top of the series) unless noted; further: nearly all actives have a fitted effect of over 70% in size; on activity change, negative = inhibition: 0% is about no effect
How it was run: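 Coupled FDH/NAD⁺ fluorescence readout. KDM5BΔAP 200 nM final; compound titration, 10 min RT preincubation; substrate mix 12.5 µM H3K4me3, 25 µM 2-OG, 50 µM Fe(II), 100 µM ascorbate, 0.25 mM NAD⁺, 0.25 U/mL FDH; ΔRFU over 30 min.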
Potency means the concentration at half of the fitted maximal effect; tags describe the fitted curve by direction and shape.

Chain of UniProt Q9UGL1 (Q9UGL1 whole entry, looked up): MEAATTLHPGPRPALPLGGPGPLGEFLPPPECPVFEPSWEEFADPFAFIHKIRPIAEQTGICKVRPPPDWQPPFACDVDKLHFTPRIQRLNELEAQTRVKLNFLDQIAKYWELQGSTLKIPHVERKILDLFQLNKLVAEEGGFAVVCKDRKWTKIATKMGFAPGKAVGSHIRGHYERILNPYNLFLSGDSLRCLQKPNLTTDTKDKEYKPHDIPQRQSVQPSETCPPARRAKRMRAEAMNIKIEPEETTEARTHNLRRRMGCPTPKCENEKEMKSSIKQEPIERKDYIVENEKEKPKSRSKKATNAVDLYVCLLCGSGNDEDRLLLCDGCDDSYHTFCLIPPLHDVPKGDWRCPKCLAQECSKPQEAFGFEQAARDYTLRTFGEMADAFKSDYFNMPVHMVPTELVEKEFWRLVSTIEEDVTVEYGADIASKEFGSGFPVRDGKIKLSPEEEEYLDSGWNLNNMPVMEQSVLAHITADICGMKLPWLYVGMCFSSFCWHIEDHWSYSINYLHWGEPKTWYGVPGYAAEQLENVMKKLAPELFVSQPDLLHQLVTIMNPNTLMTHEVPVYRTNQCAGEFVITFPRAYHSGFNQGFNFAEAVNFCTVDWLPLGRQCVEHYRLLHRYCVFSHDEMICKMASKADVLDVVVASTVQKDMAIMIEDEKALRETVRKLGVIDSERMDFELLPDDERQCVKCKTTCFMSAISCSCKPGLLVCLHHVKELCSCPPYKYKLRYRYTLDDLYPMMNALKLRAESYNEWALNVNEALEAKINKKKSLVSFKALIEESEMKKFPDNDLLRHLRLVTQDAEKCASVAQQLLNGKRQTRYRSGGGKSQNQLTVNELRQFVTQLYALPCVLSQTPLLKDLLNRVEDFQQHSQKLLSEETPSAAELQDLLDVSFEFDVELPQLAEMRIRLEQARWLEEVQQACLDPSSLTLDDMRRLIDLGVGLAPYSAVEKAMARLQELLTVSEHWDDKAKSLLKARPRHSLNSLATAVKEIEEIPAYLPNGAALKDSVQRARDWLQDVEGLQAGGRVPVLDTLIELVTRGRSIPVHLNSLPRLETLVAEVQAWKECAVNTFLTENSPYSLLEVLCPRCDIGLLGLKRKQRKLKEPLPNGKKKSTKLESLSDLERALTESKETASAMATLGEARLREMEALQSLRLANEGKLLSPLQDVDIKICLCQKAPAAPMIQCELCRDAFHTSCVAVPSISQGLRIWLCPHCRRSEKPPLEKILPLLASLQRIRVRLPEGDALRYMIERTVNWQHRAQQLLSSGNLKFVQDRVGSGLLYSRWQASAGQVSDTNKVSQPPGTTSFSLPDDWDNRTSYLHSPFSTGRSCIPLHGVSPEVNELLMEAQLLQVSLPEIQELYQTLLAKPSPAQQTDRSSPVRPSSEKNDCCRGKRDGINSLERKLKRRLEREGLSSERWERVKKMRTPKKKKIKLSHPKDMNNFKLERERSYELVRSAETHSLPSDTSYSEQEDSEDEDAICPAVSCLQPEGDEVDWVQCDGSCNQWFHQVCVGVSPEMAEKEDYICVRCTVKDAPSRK

Row | SMILES | Potency | activity change, negative = inhibition
1 | COC[C@@H]1CN(Cc2ccc[nH]2)C[C@H]1c1ccncc1 | inconclusive: 10 µM [inhibitor, partial curve, poor fit] | –
2 | COc1ccc(NS(=O)(=O)c2ccc3oc(SCC(=O)N4CCCCCC4)nc3c2)cc1 | – | inactive: 1.59%
3 | COc1ccc(OC)c(C2C(C(=O)c3ccco3)=C(O)C(=O)N2c2nc3ccc(C)cc3s2)c1 (configuration not stated) | – | inactive: -10.4%
4 | CC(C)CC(=O)N1CCN(Cc2ccncc2)CC1 | – | inactive: -17.3%
5 | O=C(/C=C/c1cccc(Br)c1)c1cccc(O)c1 | inconclusive: 39.8 µM [inhibitor, single point] | –
6 | COc1ccc2c(-c3ccccc3)cc(SCC(=O)N3CCOC(C)C3)nc2c1 (configuration not stated) | inconclusive: 28.2 µM [inhibitor, single point] | –
7 | CC(=O)c1ccc(NC(=O)c2cc3n(n2)CC(c2ccc(Br)cc2)OC3)cc1 (configuration not stated) | – | inactive: -25.5%
8 | COc1ccc(-c2cc(N3CCCC(NC(=O)c4ccc5cc[nH]c5c4)C3)n[nH]2)cc1 (configuration not stated) | – | inactive: -29.5%
9 | COc1ccc(CCNC(=O)/C(C#N)=C2\N=C(NC(=O)c3ccco3)c3ccccc32)cc1 | inconclusive: 31.6 µM [inhibitor, single point] | –
10 | COc1ccc(-c2nc3sc(CCNC(=O)c4cccc(C(F)(F)F)c4)c(C)n3n2)cc1 | – | inactive: -23.8%
11 | CCc1ccc2oc(C(=O)N(Cc3ccccc3)C3CCS(=O)(=O)C3)cc(=O)c2c1 (configuration not stated) | – | inactive: 8.69%
12 | CN(C)C[C@@H]1CN(Cc2ccncc2)C[C@H]1NC(=O)c1cccc(C#N)c1 | inconclusive: 28.2 µM [inhibitor, partial curve, poor fit] | –
13 | COc1ccc(NC(=O)Cn2ccn3nc(-c4ccccc4)c(CO)c3c2=O)cc1OC | – | inactive: -29.9%
14 | C=CCOc1ccccc1CN(CC)C(=O)C1CCN(c2ncccn2)CC1 | inconclusive: 15.8 µM [inhibitor, partial curve] | –
15 | O=C(CNC(=O)c1cccs1)OCc1ccc(Cl)cc1 | inconclusive: 25.1 µM [inhibitor, partial curve, poor fit] | –
16 | COc1ccc(OCC(=O)n2nc(C)c(S(=O)(=O)N3CCc4ccccc4C3)c2C)cc1 | – | inactive: -3.51%
17 | COc1cccc(Nc2nc(N)c(C(=O)c3cc(C)c(C)cc3C)s2)c1 | inconclusive: 22.4 µM [inhibitor, single point] | –
18 | CCOC(=O)c1cnc2ccc(C(=O)OC)cc2c1Nc1ccccc1CC | inconclusive: 1.26 µM [inhibitor, partial curve, poor fit] | –
19 | CCOc1ccc(C2c3[nH]c4ccccc4c3CCN2C(=O)Cc2cccc(OCC)c2OCC)cc1 (configuration not stated) | – | inconclusive: -32.2% [inhibitor]
20 | CC(CNC(=O)Nc1ccc(C(F)(F)F)cc1)CN1CCN(C)CC1 (configuration not stated) | – | inactive: 18.8%
21 | CC(C)OCCCNc1ncnc2c1CN(C1CCC1)C(=O)CN2C | inconclusive: 25.1 µM [inhibitor, partial curve] | –
22 | O=C(c1cnccn1)N1CCC(c2nc(C3CC3)no2)C1 (configuration not stated) | – | inactive: -12.6%
23 | Cc1ccc(NC(=O)CN2CCCN(Cc3ccccc3Cl)S2(=O)=O)c(C)c1 | inconclusive: 15.8 µM [inhibitor, partial curve, poor fit] | –

Row | SMILES | Potency | activity change, negative = inhibition
24 | COc1ccccc1CNC(=O)CCc1c(C)nc2cc(-c3ccccc3OC)nn2c1C | inconclusive: 31.6 µM [inhibitor, partial curve, poor fit] | –
25 | Cc1ccc(SCc2ccc(C(=O)Nc3nccs3)o2)cc1 | inconclusive: 39.8 µM [inhibitor, single point] | –
26 | O=C(C[C@@H]1CCNC[C@@H]1Cc1cc(COc2ccccc2)on1)NCc1cccnc1 | inconclusive: 28.2 µM [inhibitor, partial curve, poor fit] | –
27 | COC(=O)c1ccccc1NC(=O)CSc1nc(-c2ccccc2)cc(C(F)(F)F)n1 | inconclusive: 1.58 µM [inhibitor, partial curve, poor fit] | –
28 | CC(=O)c1ccc(NC(=O)c2ccc3c(c2)N(Cc2cccc(Cl)c2)C(=O)c2ccccc2S3(=O)=O)cc1 | inconclusive: 14.1 µM [inhibitor, partial curve, poor fit] | –
29 | O=C(Nc1ccc(F)cc1)N1CC[C@H]2CC(=O)N(c3ccccc3)CC[C@H]2C1 | – | inactive: 31.9% [at 86.2 µM]
30 | Cc1ccc(Cn2ccn(CC(=O)Nc3ccccc3C(F)(F)F)c(=O)c2=O)cc1 | inconclusive: 44.7 µM [inhibitor, single point] | –
31 | CC(C)c1ccc(/C=C2\Oc3cc(OS(C)(=O)=O)ccc3C2=O)cc1 | inconclusive: 22.4 µM [inhibitor, single point] | –
32 | COCCc1noc(-c2ccc(N(C)Cc3ccnc(C)c3)nc2)n1 | inconclusive: 12.6 µM [inhibitor, partial curve, poor fit] | –
33 | CCOC(=O)c1cnc2cc(C(F)(F)F)ccc2c1N1CCN(c2ccc(F)cc2)CC1 | – | inconclusive: -32.6% [inhibitor] [at 11.5 µM]
34 | Cc1cc(N)ccc1-c1ccc(N)cc1C | inconclusive: 39.8 µM [inhibitor, single point] | –
35 | Cc1cccc(-n2c3c(cc(-c4nc(-c5ccc(Cl)cc5)cs4)c2=O)C(=O)CC(C)(C)C3)c1 | inconclusive: 7.08 µM [inhibitor, partial curve, poor fit] | –
36 | CCc1ccc(NC(=O)c2cc(-c3cccs3)on2)cc1 | inconclusive: 22.4 µM [inhibitor, single point] | –
37 | CCn1cc(C2N3CC4(CC)CN2CC(CC)(C3)C4=O)c2ccccc21 (configuration not stated) | inactive | –
38 | O=C(Cc1noc(C(=O)NC2CCCC2)n1)Nc1cccc2ncccc12 | inconclusive: 25.1 µM [inhibitor, single point] | –
39 | COc1cccc(/C=C/c2nc(C#N)c(N3CCCCC3)o2)c1 | inconclusive: 2.24 µM [inhibitor, full curve, poor fit] | –
40 | CCCn1c(=N)c(C(=O)NCc2cccnc2)cc2c(=O)n3cc(C)ccc3nc21 | inconclusive: 2 µM [inhibitor, partial curve, poor fit] | –
41 | CCc1ccc(CSc2nc(-c3ccccc3OC)nc3c2Cc2c(CO)cnc(C)c2O3)cc1 | inconclusive: 17.8 µM [inhibitor, partial curve, poor fit] | –
42 | CSc1ccc(C2NC(=S)NC3=C2CCc2ccccc23)cc1 (configuration not stated) | inconclusive: 22.4 µM [inhibitor, partial curve, poor fit] | –
43 | CCOc1ccccc1CNc1ncnc2c1nc1n2CCCC1 | inconclusive: 17.8 µM [inhibitor, partial curve, poor fit] | –
44 | CSc1ccc(CCNC(=O)CCc2c(C)nc3c(-c4ccccc4)c(C)nn3c2C)cc1 | inconclusive: 15.8 µM [inhibitor, partial curve, poor fit] | –
45 | O=C(NC[C@H]1COCc2nc3cc(C(F)(F)F)ccc3n21)c1ccccn1 | inconclusive: 35.5 µM [inhibitor, partial curve] | –
46 | CN1CCc2c([nH]c3ccccc23)C12CCN(C(=O)c1ccc3ncccc3c1)CC2 | – | inactive: -8.64%

Row | SMILES | Potency | activity change, negative = inhibition
47 | CC(C)c1nccn1CCCNC(=O)c1ccc(N2CCCC(CO)C2)nc1 (configuration not stated) | – | inactive: -13%
48 | Cc1noc(C)c1-c1nccc2c(=O)cc(N(C)C3CCOCC3)oc12 | inconclusive: 35.5 µM [inhibitor, partial curve, poor fit] | –
49 | Cc1ccc(CCNC(=O)c2cc(-c3ccncc3)nc3ccccc23)cc1 | – | inactive: 17.8%
50 | CCCN1CCC2(CCN(C(=O)OC)CC2)Oc2ccccc21 | inconclusive: 25.1 µM [inhibitor, partial curve] | –
51 | O=C(/C=C/c1ccco1)Nc1cccc(C(=O)Nc2ccccc2C(=O)O)c1 | inconclusive: 39.8 µM [inhibitor, partial curve, poor fit] | –
52 | N#Cc1c(N)sc2c1CCCCC2 | – | inactive: -21.2%
53 | Fc1cc(F)cc(Cc2nc3nccc(-c4cccs4)n3n2)c1 | active: 25.1 µM | –
54 | CC(=O)Nc1cccc(-c2ncc3c(n2)OCCN(CC2CC2)C3=O)c1 | active: 31.6 µM | –
55 | O=C(CCC1CCN(C(=O)CSc2ncccn2)CC1)NCC1CCCO1 (configuration not stated) | – | inactive: 27.2%
56 | COc1cccc(NC(=O)CN2CCCN(S(=O)(=O)c3ccc(Br)cc3)CC2)c1 | – | inconclusive: -32.1% [inhibitor]
57 | Cc1nnc2ccc(-c3cccc(NC(=O)Cc4cccs4)c3)nn12 | inconclusive: 25.1 µM [inhibitor, single point] | –
58 | COc1ccccc1Cn1c(C)c2c(=O)n(-c3ccc(F)cc3)[nH]c2cc1=O | – | inactive: -4.45%
59 | O=C(O)c1cc(-c2ccc3cc[nH]c3c2)cc(S(=O)(=O)N2CCSCC2)c1 | inconclusive: 12.6 µM [inhibitor, partial curve, poor fit] | –
60 | O=C(CN1CCC(C(=O)c2ccccc2)CC1)NC1CCC(C(F)(F)F)CC1 (configuration not stated) | – | inactive: 8.69%
61 | Cc1ccc(C(=O)NCC2CCOCC2)cn1 | – | inactive: 22.3%
62 | Cc1cc(OCc2nnc(SCc3ccc(Cl)cc3)n2C)ccc1Cl | – | inactive: 4.68%
63 | CN1CCN(CCCNC(=O)C2CCc3sc(C(=O)N4CCCCCC4)cc3C2)CC1 (configuration not stated) | – | inactive: 19.2%
64 | N#C/C(=C\c1ccc2c3c(cccc13)CC2)c1nc2ccccc2[nH]1 | inconclusive: 39.8 µM [inhibitor, single point] | –
65 | Oc1ccc(O)c([S+]2CCCC(C3CCCCC3)C2)c1 (configuration not stated) | inconclusive: 28.2 µM [inhibitor, partial curve, poor fit] | –
66 | O=C(CCS(=O)(=O)c1cccs1)Nc1ccc(C(=O)Nc2cccc(Cl)c2)cc1 | inconclusive: 17.8 µM [inhibitor, partial curve, poor fit] | –
67 | CCNc1nc2c(c(=O)[nH]c(=O)n2C)n1CC(O)COc1ccc(Cl)cc1Cl (configuration not stated) | inconclusive: 2.82 µM [inhibitor, partial curve, poor fit] | –
